Data: the supplement of paper PMC4604168 (melanoma cell lines)
This is one part of the list. Most values come without repeats; read them as rough.

What follows are compounds tested on COLO829 (assay: cell count relative to DMSO control; melanoma cells; higher = more viable cells). Settings: library dose: standard library concentration; 72 h.
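Further: cells treated in 1,536-well plates, then fixed and DAPI-stained, with nuclei counted from automated high-throughput microscope images.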

SMILES	cell count [%]
Cc1cc(Nc2cc(N3CCN(C)CC3)nc(Sc3ccc(NC(=O)C4CC4)cc3)n2)n[nH]1 [Tozasertib] + O=C(O)c1ccc(-c2c[nH]c3ncc(-c4ccccc4)cc23)cc1C1CCCC1 [GSK650394] (first compound 0.03 µM, partner dose 0.8 µM)	68.3
Cc1cc(Nc2cc(N3CCN(C)CC3)nc(Sc3ccc(NC(=O)C4CC4)cc3)n2)n[nH]1 [Tozasertib] + Nc1cccc2c1CN(C1CCC(=O)NC1=O)C2=O [lenalidomide] (first compound 0.03 µM, partner dose 5 µM)	90.8
N#CC[C@H](C1CCCC1)n1cc(-c2ncnc3[nH]ccc23)cn1 [ruxolitinib] + CCN(CC)CCCCNc1ncc2cc(-c3cc(OC)cc(OC)c3)c(NC(=O)NC(C)(C)C)nc2n1 [PD173074] (first compound 5 µM, partner dose 0.5 µM)	116
N#CC[C@H](C1CCCC1)n1cc(-c2ncnc3[nH]ccc23)cn1 [ruxolitinib] + O=C(CCCCCCC(=O)Nc1ccccc1)NO [vorinostat] (first compound 5 µM, partner dose 0.4 µM)	80.7
CC[C@]1(O)C[C@H]2CN(CCc3c([nH]c4ccccc34)[C@@](C(=O)OC)(c3cc4c(cc3OC)N(C=O)[C@H]3[C@@](O)(C(=O)OC)[C@H](OC(C)=O)[C@]5(CC)C=CCN6CC[C@]43[C@@H]65)C2)C1 [vincristine] + COC(=O)c1sccc1S(=O)(=O)Nc1ccc(Nc2ccccc2)cc1OC [GSK0660] (first compound 0.0005 µM, partner dose 5 µM)	53.2
CC[C@]1(O)C[C@H]2CN(CCc3c([nH]c4ccccc34)[C@@](C(=O)OC)(c3cc4c(cc3OC)N(C=O)[C@H]3[C@@](O)(C(=O)OC)[C@H](OC(C)=O)[C@]5(CC)C=CCN6CC[C@]43[C@@H]65)C2)C1 [vincristine] + O=C(/C=C/c1cccnc1)NCCCCC1CCN(C(=O)c2ccccc2)CC1 [FK866] (first compound 0.0005 µM, partner dose 0.05 µM)	64.2
Cc1cc(Nc2cc(N3CCN(C)CC3)nc(Sc3ccc(NC(=O)C4CC4)cc3)n2)n[nH]1 [Tozasertib] + CC(C)(C)c1cnc(CSc2cnc(NC(=O)C3CCNCC3)s2)o1 [SNS-032] (first compound 0.03 µM, partner dose 0.05 µM)	85.9
Cc1cc(Nc2cc(N3CCN(C)CC3)nc(Sc3ccc(NC(=O)C4CC4)cc3)n2)n[nH]1 [Tozasertib] + c1cc(-c2cnn3cc(-c4ccc(OCCN5CCCCC5)cc4)cnc23)ccn1 [Dorsomorphin] (first compound 0.03 µM, partner dose 2 µM)	73
N#CC[C@H](C1CCCC1)n1cc(-c2ncnc3[nH]ccc23)cn1 [ruxolitinib] + Nc1ccn([C@@H]2O[C@H](CO)[C@@H](O)C2(F)F)c(=O)n1 [gemcitabine] (first compound 5 µM, partner dose 0.002 µM)	44.8
Cc1cc(Nc2cc(N3CCN(C)CC3)nc(Sc3ccc(NC(=O)C4CC4)cc3)n2)n[nH]1 [Tozasertib] + CCN(CC)CCNC(=O)c1c(C)[nH]c(/C=C2\C(=O)Nc3ccc(F)cc32)c1C [sunitinib] (first compound 0.03 µM, partner dose 2 µM)	79.9
Cc1cc(Nc2cc(N3CCN(C)CC3)nc(Sc3ccc(NC(=O)C4CC4)cc3)n2)n[nH]1 [Tozasertib] + Nc1ncn([C@H]2C[C@H](O)[C@@H](CO)O2)c(=O)n1 [decitabine] (first compound 0.03 µM, partner dose 0.5 µM)	54.4
N#CC[C@H](C1CCCC1)n1cc(-c2ncnc3[nH]ccc23)cn1 [ruxolitinib] + Cc1cc([N+](=O)[O-])ccc1NS(=O)(=O)c1cc(Cl)ccc1Cl [FH535] (first compound 5 µM, partner dose 5 µM)	82.7
CC[C@]1(O)C[C@H]2CN(CCc3c([nH]c4ccccc34)[C@@](C(=O)OC)(c3cc4c(cc3OC)N(C=O)[C@H]3[C@@](O)(C(=O)OC)[C@H](OC(C)=O)[C@]5(CC)C=CCN6CC[C@]43[C@@H]65)C2)C1 [vincristine] + Nc1nc(F)nc2c1ncn2[C@@H]1O[C@H](CO)[C@@H](O)[C@@H]1O [fludarabine] (first compound 0.0005 µM, partner dose 1 µM)	126
Cc1cc(Nc2cc(N3CCN(C)CC3)nc(Sc3ccc(NC(=O)C4CC4)cc3)n2)n[nH]1 [Tozasertib] + C[C@]1(O)C[C@@H](c2nc(-c3ccc4ccc(-c5ccccc5)nc4c3)c3c(N)nccn32)C1 [OSI906] (first compound 0.03 µM, partner dose 2 µM)	72.4
Cc1cc(Nc2cc(N3CCN(C)CC3)nc(Sc3ccc(NC(=O)C4CC4)cc3)n2)n[nH]1 [Tozasertib] + Cn1c(=O)n(-c2ccc(C(C)(C)C#N)cc2)c2c3cc(-c4cnc5ccccc5c4)ccc3ncc21 [NVP-BEZ235] (first compound 0.03 µM, partner dose 0.02 µM)	82.3
CC[C@]1(O)C[C@H]2CN(CCc3c([nH]c4ccccc34)[C@@](C(=O)OC)(c3cc4c(cc3OC)N(C=O)[C@H]3[C@@](O)(C(=O)OC)[C@H](OC(C)=O)[C@]5(CC)C=CCN6CC[C@]43[C@@H]65)C2)C1 [vincristine] + C=CCn1c(=O)c2cnc(Nc3ccc(N4CCN(C)CC4)cc3)nc2n1-c1cccc(C(C)(C)O)n1 [MK1775] (first compound 0.0005 µM, partner dose 0.1 µM)	48.7
Cc1cc(Nc2cc(N3CCN(C)CC3)nc(Sc3ccc(NC(=O)C4CC4)cc3)n2)n[nH]1 [Tozasertib] + N#Cc1c(O)c2c(-c3ccc(-c4ccccc4O)cc3)csc2[nH]c1=O [A769662] (first compound 0.03 µM, partner dose 10 µM)	76.5
Cc1cc(Nc2cc(N3CCN(C)CC3)nc(Sc3ccc(NC(=O)C4CC4)cc3)n2)n[nH]1 [Tozasertib] + CN(C)S(=O)(=O)c1ccc2c(c1)/C(=C/c1cc3c([nH]1)CCCC3)C(=O)N2 [SU6656] (first compound 0.03 µM, partner dose 2 µM)	75.1
N#CC[C@H](C1CCCC1)n1cc(-c2ncnc3[nH]ccc23)cn1 [ruxolitinib] + O=C(O)C(=O)Nc1sc2c(c1C(=O)O)CCNC2 [TCS401] (first compound 5 µM, partner dose 8.33333 µM)	102
Cc1cc(Nc2cc(N3CCN(C)CC3)nc(Sc3ccc(NC(=O)C4CC4)cc3)n2)n[nH]1 [Tozasertib] + COc1cc2ncnc(Nc3ccc(Oc4ccccc4)cc3)c2cc1OC [SrcI1] (first compound 0.03 µM, partner dose 10 µM)	79.1
Cc1cc(Nc2cc(N3CCN(C)CC3)nc(Sc3ccc(NC(=O)C4CC4)cc3)n2)n[nH]1 [Tozasertib] + CN(c1ncccc1CNc1nc(Nc2ccc3c(c2)CC(=O)N3)ncc1C(F)(F)F)S(C)(=O)=O [PF562271] (first compound 0.03 µM, partner dose 0.4 µM)	59.9
N#CC[C@H](C1CCCC1)n1cc(-c2ncnc3[nH]ccc23)cn1 [ruxolitinib] + Cn1cnc2c(F)c(Nc3ccc(Br)cc3Cl)c(C(=O)NOCCO)cc21 [selumetinib] (first compound 5 µM, partner dose 0.075 µM)	107
N#CC[C@H](C1CCCC1)n1cc(-c2ncnc3[nH]ccc23)cn1 [ruxolitinib] + c1cc(-c2cnn3cc(-c4ccc(OCCN5CCCCC5)cc4)cnc23)ccn1 [Dorsomorphin] (first compound 5 µM, partner dose 2 µM)	71
Cc1cc(Nc2cc(N3CCN(C)CC3)nc(Sc3ccc(NC(=O)C4CC4)cc3)n2)n[nH]1 [Tozasertib] + Cc1cn(-c2cc(NC(=O)c3ccc(C)c(Nc4nccc(-c5cccnc5)n4)c3)cc(C(F)(F)F)c2)cn1 [nilotinib] (first compound 0.03 µM, partner dose 1 µM)	90
CC[C@]1(O)C[C@H]2CN(CCc3c([nH]c4ccccc34)[C@@](C(=O)OC)(c3cc4c(cc3OC)N(C=O)[C@H]3[C@@](O)(C(=O)OC)[C@H](OC(C)=O)[C@]5(CC)C=CCN6CC[C@]43[C@@H]65)C2)C1 [vincristine] + Cc1nc(Nc2ncc(C(=O)Nc3c(C)cccc3Cl)s2)cc(N2CCN(CCO)CC2)n1 [dasatanib] (first compound 0.0005 µM, partner dose 0.02 µM)	56.7
CC[C@]1(O)C[C@H]2CN(CCc3c([nH]c4ccccc34)[C@@](C(=O)OC)(c3cc4c(cc3OC)N(C=O)[C@H]3[C@@](O)(C(=O)OC)[C@H](OC(C)=O)[C@]5(CC)C=CCN6CC[C@]43[C@@H]65)C2)C1 [vincristine] + O=C(O)c1ccc2c(c1)nc(Nc1cccc(Cl)c1)c1ccncc12 [CX4945] (first compound 0.0005 µM, partner dose 2 µM)	37.4
N#CC[C@H](C1CCCC1)n1cc(-c2ncnc3[nH]ccc23)cn1 [ruxolitinib] + O=C(Nc1cccc(Cl)c1)Nc1ncc(CCNc2ncnc3ccsc23)s1 [SNS314] (first compound 5 µM, partner dose 0.004 µM)	73
